# Results taken from PubChem BioAssay AID686978 (National Center for Advancing Translational Sciences (NCATS), 2013).
# Where “and” joins values, the source holds several entries; their conditions need not be identical. Equal values may be shown once. The campaign covered roughly 420,000 compounds. About 64,000 (15%) were called active. The inconclusive results got no clear call from the source; some entries with a clear call stand among them for comparison. Calls follow the shape of the dose curve; as a rule, active = well fitted inhibition curve with a large enough effect; inconclusive = small, poorly fitted or top-dose-only effect; inactive = flat fitted curve, though single readings scatter. Potencies of inconclusive entries are doubtful fits and often do not repeat.
# Assay: qHTS for Inhibitors of human tyrosyl-DNA phosphodiesterase 1 (TDP1): qHTS in cells in absence of CPT; also: nearly all actives have a fitted effect of over 55% in size
# Conditions: DT40 Tdp1-/- hTDP1 cells, no CPT, ATP luminescence, 48 h; activity change, negative = growth inhibition: at 46.2 µM (top of the series) unless noted
# Method in brief: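 Luminescent ATP content (CellTiter-Glo) served as the growth readout. Knockout chicken DT40 cells expressing human TDP1 were exposed to compounds without camptothecin for a minimum 48 hr at 37 °C.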
# % is scaled to controls: 0 for no effect and ±100 for the full control effect; potency is read from the fitted curve at half-maximal effect; tags tell the direction and shape of the fitted curve.
Compound,Potency,"activity change, negative = growth inhibition"
N#Cc1ccc(CN2CCCC3(CCN(C(=O)c4cccc(F)c4)CC3)C2)cc1,"inconclusive: 29.1 µM [inhibitor, partial curve, poor fit]",–
CC(=O)NC(Cc1ccc(I)cc1)C(=O)NCC(N)C(=O)c1ccccc1 (centres undefined),"inconclusive: 25.1 µM [inhibitor, single point]",–
CCCOc1ccc(C(F)(F)F)cc1NC(=O)c1cc(C)on1,–,inactive: 6.79%
CC(NC(=O)C1CCN(C(=O)c2ccc(F)cc2)CC1)c1ccc(-n2ccnc2)cc1 (centres undefined),–,inactive: 2.83%
COc1ccccc1Nc1nc(NCc2ccco2)nc(N)c1[N+](=O)[O-],"inconclusive: 29.1 µM [inhibitor, single point]",–
CN1CCN(C(=O)C2Cc3c(-c4cccc(F)c4)ccnc3O2)CC1 (centres undefined),–,inactive: -8.67%
O=[N+]([O-])c1cnc2ccccc2c1,–,inactive: -3.85%
Cc1ccc(-c2noc(CN3C(C)CCCC3C)n2)cc1 (centres undefined),"inconclusive: 25.9 µM [inhibitor, single point]",–
Cc1cc(C)c2c(C(C)(C)C)nn(-c3ccccc3)c2n1,"inconclusive: 25.9 µM [inhibitor, single point]",–
COc1ccc(CCc2nnc(CCC(=O)N(C)Cc3ccnc4ccccc34)o2)cc1,active: 4.61 µM,–
CC(C)CC(N)c1csc(Nc2ccccn2)n1 (centres undefined),"inconclusive: 23.1 µM [inhibitor, single point]",–
O=C(O)CCc1nc(-c2ccccc2)no1,–,inactive: -16.5%
CN1CCN(C2=NC(=O)/C(=C/c3cn[nH]c3-c3ccccc3)S2)CC1,"inconclusive: 29.1 µM [inhibitor, single point]",–
CN(C)S(=O)(=O)c1ccc(Cl)c(C(=O)NNC(=O)Cn2ccc(C(F)(F)F)n2)c1,–,inactive: -1.15%
CC(C)OC(=O)CSc1nnc(CNc2ccc(Cl)cc2)n1Cc1ccccc1,"inconclusive: 13 µM [inhibitor, partial curve, poor fit]",–
CCOC(=O)c1c(NC(=O)Cn2nnc(-c3ccc(Cl)cc3)n2)sc(C)c1C,–,inactive: -19.2%
Cc1cccc(NC(=S)NC2CCN(Cc3ccccc3)CC2)c1C,"inconclusive: 16.4 µM [inhibitor, single point]",–
O=C(COc1ccc(Br)cc1F)N1CCN(c2ncccn2)CC1,"inconclusive: 29.1 µM [inhibitor, single point]",–
CC(C)(C)c1cccc(OCCCSc2ncccn2)c1,"inconclusive: 29.1 µM [inhibitor, single point]",–
COc1cccc(NC(=S)N2CCc3cc(OC)c(OC)cc3C2)c1,"inconclusive: 20.6 µM [inhibitor, partial curve]",–
Cc1cccc(NC(=O)CSc2nc3c([nH]c4ccccc43)c(=O)n2C)c1C,"inconclusive: 11.6 µM [inhibitor, partial curve]",–
CCN(CCC(=O)Nc1cc(OC)cc(OC)c1)Cc1ccccc1,"inconclusive: 29.1 µM [inhibitor, single point]",–
COC(=O)c1cccc(NC(=O)CSc2nc3cccnc3n2C)c1,active: 16.4 µM,–
CN(CC(=O)Nc1ccc(Cl)c(C(F)(F)F)c1)Cc1cc(=O)n2ccsc2n1,"inconclusive: 23.1 µM [inhibitor, single point]",–
COc1ccc(C(C(=O)NC(C)(C)C)N(CCC(C)C)C(=O)CCC(=O)Nc2cc(C)on2)cc1 (centres undefined),"inconclusive: 29.1 µM [inhibitor, single point]",–

Compound,Potency,"activity change, negative = growth inhibition"
CN(CC(=O)Nc1ccc(Cl)c(Cl)c1)C(=O)c1ccccc1SCC(=O)N1CCCC1,active: 23.1 µM,–
O=C1NC(c2cccc(OCc3ccccc3)c2)Nc2ccccc21 (centres undefined),active: 1.16 µM,–
COC(=O)CNC(=O)C1(C)C=CCN1C(=O)c1ccccc1 (centres undefined),–,inactive: 1.23%
COc1cc(NS(=O)(=O)c2ccc(NC(=S)NC(C)=O)cc2)nc(OC)n1,–,inactive: 1.92%
COc1cccc(OCCNC(=O)c2ccccc2Sc2ccccc2C#N)c1,active: 16.4 µM,–
CCN(CC)CCOc1nnc(-c2ccc(C)cc2)c2ccccc12,active: 14.6 µM,–
Brc1ccccc1-c1ccccc1,inactive,–
Cc1csc(=Nc2c(C)n(C)n(-c3ccccc3)c2=O)n1Cc1ccccc1,"inactive and inconclusive: 32.6 µM [inhibitor, single point]",–
COc1ccc(-c2csc(C(O)c3ccccc3)n2)cc1 (centres undefined),"inconclusive: 25.9 µM [inhibitor, single point]",–
O=C(NCCN1CCN(C(=O)c2cccc(Br)c2)CC1)C(=O)Nc1ccc(Br)cc1,active: 25.9 µM,–
CCN1CCN(CCNC(=O)CCCn2nc(C)c3c(C)n(-c4ccc(C)cc4)nc3c2=O)CC1,"inconclusive: 13 µM [inhibitor, partial curve]",–
Fc1ccc(-c2nnc3sc(C4COc5ccccc5O4)nn23)cc1 (centres undefined),"inconclusive: 11.2 µM [inhibitor, single point]",–
Cc1csc(NC(=O)CSc2ccc(-c3ccccc3)nn2)n1,"inconclusive: 14.6 µM [inhibitor, partial curve]",–
CCOC(=O)c1ccc(NS(=O)(=O)c2ccc(Br)s2)cc1,–,inactive: -28.3%
COc1ccccc1NC(=O)CSc1oc(-c2cccs2)nc1S(=O)(=O)c1ccc(Br)cc1,"inconclusive: 20.6 µM [inhibitor, single point]",–
CCOc1ccc(C2C3=C(CCCC3=O)N(CC(=O)O)C3=C2C(=O)CCC3)cc1,–,inactive: -10.5%
COc1ccccc1C(CNC(=O)c1cc(S(=O)(=O)N2CCOCC2)ccc1C)N1CCCC1 (centres undefined),–,inactive: 13.8%
Nc1nc(NCCO)nc(NCc2ccccc2)c1[N+](=O)[O-],"inconclusive: 29.1 µM [inhibitor, single point]",–
CC(=O)Oc1ccc(C(=O)Nc2cc(NC(=O)c3ccc(OC(C)=O)cc3)cc(C(=O)NC(C)(C)C)c2)cc1,active: 25.9 µM,–
CC(=O)c1c(C)n(-c2ccccc2Br)c2ccc(O)cc12,"inconclusive: 23.1 µM [inhibitor, single point]",–
CC(c1ccccc1)N1C(=O)OC(C)(C)C1(C)O (centres undefined),–,inactive: 3.72%
CCOC(=O)C1(CCOc2ccccc2)CCN(S(=O)(=O)N(C)C)CC1,"inconclusive: 25.9 µM [inhibitor, single point]",–
COc1ccccc1CNC(=O)Cn1ncc2c3ccccc3n(Cc3ccccc3C)c2c1=O,active: 16.4 µM,–
O=C1[C@@H](Oc2ccccc2)[C@@H](c2ccncc2)N1c1ccccc1,active: 18.4 µM,–
Cc1ccc([C@H]2C[C@@H](O)[C@H](n3cc(C4CC4)nn3)CN2C(=O)C2CCCCC2)cc1,"inconclusive: 18.4 µM [inhibitor, single point]",–

Compound,Potency,"activity change, negative = growth inhibition"
CC(=O)c1c(C)[nH]c(C(=O)OCc2c(F)cccc2Cl)c1C,"inconclusive: 23.1 µM [inhibitor, partial curve]",–
NS(=O)(=O)c1ccc(CNC(=O)c2cccc(Oc3ccccc3)c2)cc1,–,inconclusive: -29.9% [inhibitor]
CS(=O)(=O)c1ccc2nc(NC(=O)C3=NN(c4ccccc4)C(=O)CC3)sc2c1,–,inactive: 4.09%
CCOC(=O)c1cnc2cc(-c3ccc(Cl)cc3)nn2c1N,–,inactive: -14.9%
O=C(NCc1cccnc1)c1cccn1-c1ncc(C(F)(F)F)cc1Cl,"inconclusive: 29.1 µM [inhibitor, single point]",–
CC(=O)Nc1ccc(S(=O)(=O)N[C@@H](C)C(=O)N2CCN(C/C=C/c3ccccc3)CC2)cc1,–,inconclusive: -30.9% [inhibitor]
Nc1c(C(=O)N/N=C/c2ccccc2)cnn1-c1ccccc1,"inconclusive: 20.6 µM [inhibitor, partial curve]",–
CN(C(=O)CSc1nc2c(c(=O)[nH]1)CCCC2)c1ccccc1,–,inactive: -27.6%
N#Cc1c(N)n(CCNC(=O)c2ccc(Cl)cc2)c2nc3ccccc3nc12,"inconclusive: 23.1 µM [inhibitor, partial curve, poor fit]",–
COc1cccc(-c2cnc(C(O)c3cc(Cl)cc(Cl)c3)[nH]2)c1 (centres undefined),"inconclusive: 23.1 µM [inhibitor, single point]",–
COc1ccc(N/N=C(/C(C)=O)N2CCCc3ccccc32)cc1,"inconclusive: 29.1 µM [inhibitor, single point]",–
O=C(NCCc1ccc(Cl)cc1)C1CCC(CNc2nc(=S)[nH]c3ccccc23)CC1 (centres undefined),active: 9.2 µM,–
O=C(/C=C/Sc1ccccc1)c1ccccc1,active: 5.17 µM,–
COc1cccc(C2Nc3ccc4ccccc4c3C3=C2C(=O)CC(C)(C)C3)c1OCC(=O)O (centres undefined),"inconclusive: 29.1 µM [inhibitor, single point]",–
O=C(OCc1cccc([N+](=O)[O-])c1)c1cccnc1Cl,–,inactive: -5.32%
Nc1cc(=O)[nH]c(=O)n1Cc1ccco1,–,inactive: -16.2%
COc1cc2c(cc1NC(=O)CN(C)Cc1cccc(OC)c1OC)oc1ccccc12,active: 13 µM,–
CCC(=Cc1ccccc1O)c1ccncc1,–,inactive: -24.8%
N#Cc1ccccc1OCc1cccc(S(=O)(=O)N2CCOCC2)c1,–,inactive: -3.62%
COC(=O)C1=C(C)N(CC2CC2)C(=NCc2cccc(C(F)(F)F)c2)N[C@H]1c1ccccc1,active: 11.6 µM,–
O=S(=O)(c1ccc(F)cc1)N1CCN(C(=S)NC2CC2)CC1,"inconclusive: 6.51 µM [inhibitor, single point]",–
COc1cccc(CNC(=O)Cn2nc(C)c3c(C)n(-c4ccc(C)cc4)nc3c2=O)c1OC,–,inactive: -21%
CC1CN=C(NC(=O)c2cccc([N+](=O)[O-])c2)S1 (centres undefined),"inconclusive: 20.6 µM [inhibitor, single point]",–
CCOc1cc(NC(=O)C2CC2)c(OCC)cc1NC(=O)c1ccccc1OCC,"inconclusive: 23.1 µM [inhibitor, single point]",–
